Results: publication PMC4336329 (PLoS ONE, 2015)
The campaign covered roughly 310,000 compounds. About 2,200 (0.71%) showed an effect of 50% or more. Effects have a minus sign here. This is one part of the list.

Biological target: human ether-à-go-go-related gene (hERG) potassium channel (human, UniProt Q12809)
Experiment: primary screen, population patch clamp on CHO cells stably expressing hERG

Sequence of human ether-à-go-go-related gene (hERG) potassium channel (Q12809 whole entry, looked up): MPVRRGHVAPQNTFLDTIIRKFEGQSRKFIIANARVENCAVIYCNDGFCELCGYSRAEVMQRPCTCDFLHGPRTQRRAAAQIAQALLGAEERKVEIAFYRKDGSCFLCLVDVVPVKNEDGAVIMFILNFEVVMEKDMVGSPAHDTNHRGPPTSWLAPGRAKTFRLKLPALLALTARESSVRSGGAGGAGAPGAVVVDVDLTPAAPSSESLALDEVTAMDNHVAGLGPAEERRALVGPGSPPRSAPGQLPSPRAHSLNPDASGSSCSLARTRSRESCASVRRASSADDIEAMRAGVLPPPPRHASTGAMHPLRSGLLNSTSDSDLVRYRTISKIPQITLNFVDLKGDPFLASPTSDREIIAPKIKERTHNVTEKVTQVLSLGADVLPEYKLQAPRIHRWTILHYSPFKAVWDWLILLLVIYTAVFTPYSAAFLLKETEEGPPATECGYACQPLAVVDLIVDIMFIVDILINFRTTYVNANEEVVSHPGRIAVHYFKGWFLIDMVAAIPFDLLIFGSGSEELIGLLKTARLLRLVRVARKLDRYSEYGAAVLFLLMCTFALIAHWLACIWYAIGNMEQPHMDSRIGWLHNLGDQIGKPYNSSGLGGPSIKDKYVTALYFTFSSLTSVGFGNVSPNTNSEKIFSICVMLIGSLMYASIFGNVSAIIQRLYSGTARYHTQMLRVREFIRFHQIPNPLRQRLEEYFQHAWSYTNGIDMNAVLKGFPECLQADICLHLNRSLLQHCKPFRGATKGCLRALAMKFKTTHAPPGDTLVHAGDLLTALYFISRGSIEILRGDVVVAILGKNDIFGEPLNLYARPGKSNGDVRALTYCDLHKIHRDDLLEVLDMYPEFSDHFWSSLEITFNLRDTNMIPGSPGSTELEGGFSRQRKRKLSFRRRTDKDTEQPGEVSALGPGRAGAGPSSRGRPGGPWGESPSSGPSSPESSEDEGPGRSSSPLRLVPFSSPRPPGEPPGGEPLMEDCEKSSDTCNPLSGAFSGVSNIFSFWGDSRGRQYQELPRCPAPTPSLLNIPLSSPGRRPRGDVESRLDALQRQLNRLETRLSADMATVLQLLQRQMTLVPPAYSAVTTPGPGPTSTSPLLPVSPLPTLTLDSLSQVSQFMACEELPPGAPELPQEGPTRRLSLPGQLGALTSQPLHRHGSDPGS

SMILES | hERG current change (%, negative = inhibition) at 1uM
Nc1cnc(Nc2ccc(Br)cc2)nc1N.O=S(=O)(O)O | 2.64%
Cc1oc2c(O)c(O)ccc2c(=O)c1-c1ccc(Cl)cc1 | 6.21%
Cc1c(NC(=O)c2ccc(=O)oc2)c(=O)n(-c2ccccc2)n1C | 4.8%
O=C(O)CCc1cccnc1 | 8.49%
CCOC(=O)c1cccc(NC(=O)c2ccc(NC(=O)C3CCCO3)cc2)c1 (centres unmarked) | 10.4%
COc1ccc(C2C(C#N)=C(N)Nc3nc4ccccc4n32)cc1 (centres unmarked) | 11.8%
Cc1c(C)c2ccc(OC(C)C(=O)NC3CCN(Cc4ccccc4)CC3)cc2oc1=O (centres unmarked) | -17.2%
O=C(O)c1ccc(CSc2nnc(COc3ccccc3)o2)cc1 | 14%
O=C(CCc1nc(-c2ccccc2F)no1)NCCc1ccccc1Cl | 4.46%
COc1ccc(S(=O)(=O)N2CCCC2C(=O)NCc2ccccc2Cl)cc1 (centres unmarked) | 1.23%
O=C(CSc1nnc(Cn2c(=O)sc3ccccc32)n1CCc1ccccc1)N1CCOCC1 | 1.18%
Cc1cccc(/C=N\NC(=O)c2ccccc2-n2cccc2)c1 | 15.3%
CCOC(=O)c1sc(=S)n(-c2ccc3c(c2)OCO3)c1N | 9%
O=C(COc1cccnc1[N+](=O)[O-])N1CCN(S(=O)(=O)c2ccccc2)CC1 | 16%
Cc1ccc(C)c(-n2nnnc2SCC(=O)NNC(=O)c2ccco2)c1 | 2.87%
C=CCc1ccccc1OCC(=O)OCCNC(=O)c1cccnc1.Cl | 8.05%
COc1ccc(/C=C2\C(=O)NCC(=O)N2Cc2ccccc2)cc1 | 7.73%
Cc1ccc(SC(=O)c2c([N+](=O)[O-])c(C)nn2C)cc1 | 9.08%
Cc1cc2ccc3ccccc3c2cc1CN(C)C.Cl | 2.33%
COc1c(OC(C)=O)ccc(/C=N\NC(=O)c2ccc(Br)cc2)c1[N+](=O)[O-] | 8.84%
O=C(Cc1c(Cl)cccc1Cl)Nc1ccncc1Cl | 8.65%
Cc1cc2c(cc(C(=O)OCC(=O)NCc3cccs3)n2C(C)C)o1 | -2.12%
Cc1cccc(C2=N/C(=C/c3cccs3)C(=O)O2)c1 | 6.53%

SMILES | hERG current change (%, negative = inhibition) at 1uM
CC(=O)c1nn(-c2cccc(C)c2)cc1C(=O)c1cccc(Br)c1 | 15.1%
O=C(NC1CCCCCCC1)c1c(O)c2ccccc2[nH]c1=O | 20.4%
CCOc1ccc(N2C(=O)/C(=C/c3ccco3)C(=O)NC2=S)cc1 | 18%
Cc1ccccc1NC(=S)/C(=C(\[O-])c1ccc(C)c([N+](=O)[O-])c1)[n+]1ccccc1 | 2.05%
COc1cccc(-n2nnnc2SCC(=O)c2ccc(NC(C)=O)cc2)c1 | -19.4%
COc1ccccc1-n1c(SCC(=O)NC2CC2)nc2ccccc2c1=O | 3.93%
COC(=O)c1cc(CNC(=O)CC(C)c2ccccc2)ccc1OC (centres unmarked) | 10.8%
O=C(/C=C/c1ccccc1)c1ccccn1 | 10.7%
CCCCN(C)S(=O)(=O)c1cc2c3c(c1)CCC(=O)N3CCC2 | -11%
C=CCN1C(=O)/C(=c2\sc3nc(=O)c(Cc4ccc(OC)c(OC)c4)nn3c2=O)c2ccccc21 | 11.1%
CC(=O)N(Cc1cc(=O)[nH]c2ccccc12)c1cccc(C)c1 | 4.54%
COC(=O)C1CCN(c2cc(=O)n(Cc3ccc(F)cc3)c(=O)[nH]2)CC1 | -0.998%
Nc1ccc([N+](=O)[O-])cc1C(=O)NNC(=O)c1ccco1 | 9.22%
COc1ccc(-n2c(SCC(=O)Nc3nccs3)nc3sc4c(c3c2=O)CCN(C)C4)cc1 | 7.52%
Cl.NC(N)=Nc1nc2ccc(Br)cc2c(=O)[nH]1 | 3.18%
COc1ccc(NS(=O)(=O)c2cc(NC(=O)CNC(=O)c3cccc(OC)c3)ccc2C)cc1 | 17.2%
CCN(CC)C(=O)CSc1nnc([C@@H](NC(=O)OC(C)(C)C)C(C)C)o1 | -4.79%
Cc1ccc(NC(=O)CSCc2cc(=O)n3cc(C)sc3n2)c(C)c1 | 11.6%
c1ccc(Cn2ncc3ccccc32)cc1 | 10.6%
CCCCOc1ccc(S(=O)(=O)N2CCCCCC2)cc1 | -3.73%
O=C(COC(=O)c1ccc(N2CCCC2=O)cc1)c1ccccc1 | 5.18%
CCCCN1C(=O)NC(=O)C2(Cc3cc(C)ccc3N(C)C2)C1=O (centres unmarked) | 5.39%
COc1ccc(CNC(=O)[C@@H](NC(=O)C2CCN(C(=O)[C@@H](N)Cc3ccccc3)CC2)C(C)C)cc1 | 1.21%

SMILES | hERG current change (%, negative = inhibition) at 1uM
CCC(C)N(C(=O)COC(=O)c1cn(CC)c2nc(C)ccc2c1=O)C1CCS(=O)(=O)C1 (centres unmarked) | 13.6%
CS(=O)(=O)c1ccc(Cl)c(NC(=O)CSC(=S)N2CCCC2)c1 | 11.6%
O=C(O)c1cccc2c1-c1ccccc1/C2=N\Nc1ccccc1 | 15.3%
COc1ccc(/C=N/NC(=O)CSc2nnc(C)n2-c2ccccc2)c(OC)c1OC | 11.3%
COC(=O)C1(Cc2cc(-c3cccc(Br)c3)no2)CCN(C(=O)OC(C)(C)C)CC1 | 12.1%
Cc1ccc(NC(=O)c2cc(F)c(F)cc2Cl)nc1 | 6.74%
Cc1nn(C(CC(=O)O)C(=O)O)c(C)c1Br (centres unmarked) | 15%
CCC1Oc2ccc(C)cc2N(CC(=O)N2CCN(c3ccc(F)cc3)CC2)C1=O (centres unmarked) | -8.16%
CCCCNC(=O)c1onc(CSc2ccccc2)c1C(=O)O | 7.32%
COC(=O)CN(c1ccccc1[N+](=O)[O-])S(=O)(=O)c1ccccc1 | 14.1%
Cc1c(Cl)cccc1NC(=O)CNC(=O)CCS(=O)(=O)c1ccc(F)cc1 | 2.28%
O=C(CSc1ncnc2c1nnn2Cc1ccc(F)cc1)NC1CCCC1 | 10.3%
CCCN(CCC)C(=O)Cn1c(=O)n(CCCC(=O)NCc2ccco2)c(=O)c2sccc21 | 2.97%
CNC(=O)/C(C#N)=C/c1ccc(OCCOc2ccccc2)cc1 | 18.9%
COc1ccc(OC)c(CN2CCN(Cc3cc(OC)c(OC)c(OC)c3)CC2)c1 | 10.9%
CCOC(=O)c1cc(-c2ccccc2)sc1N | 7.31%
COCc1cc(=O)[nH]c(Cc2c(Cl)cccc2Cl)n1 | 10.5%
Cl.O=C(O)C1NCCc2ccccc21 (centres unmarked) | 0.712%
CSc1cccc(NCc2ccc([N+](=O)[O-])cc2)c1 | 7.88%
CCOC(=O)Nc1ccc(NC(=O)c2ccccc2F)cc1 | 13.6%
Cc1c(C)c2ccc(OC3CCCCC3=O)cc2oc1=O (centres unmarked) | 12.3%
Cn1c(CCNC(=O)c2ccc(F)cc2)nc2ccccc21 | -3.41%
COc1ccc(C2CC(c3cccs3)=NN2C(=O)CSc2nc(=O)n3cc(C)ccc3n2)cc1 (centres unmarked) | -30.5%

SMILES | hERG current change (%, negative = inhibition) at 1uM
CCOC(=O)C(=CNNc1cccc(Cl)c1)C(=O)OCC | 7.49%
Cc1ccc(-c2noc(N=O)c2NO)cc1 | 7.87%
COc1cc(OC)cc(C(=O)Nc2cc(-c3cn4cccnc4n3)ccc2C)c1 | -3.96%
CCc1ccc(OCC(=O)O/N=C(\N)c2ccncc2)cc1 | 15.7%
Cc1nc2scc(C)n2c(=O)c1S(=O)(=O)NC(C)c1ccccc1 (centres unmarked) | 11.6%
COc1ccccc1C(=O)OCCN=C1NS(=O)(=O)c2ccccc21 | 14.1%
COc1ccc(C(CNC(=O)c2ccc(S(=O)(=O)N3CCCC3)cc2)N2CCOCC2)cc1 (centres unmarked) | 7.32%
O=C(NCCc1ccc(C(F)(F)F)cc1)c1ccc2c(c1)OCO2 | 7.79%
CCCCOc1ccc(CSc2ncn[nH]2)cc1 | 4.88%
COc1ccc(NC(=O)c2cc(-c3cc(C)c(C)cc3O)n[nH]2)c(OC)c1 | 14.2%
CCSc1oc(-c2ccco2)nc1S(=O)(=O)c1ccc(F)cc1 | -0.87%
CC(NC(=O)c1ccc(Cn2cc([N+](=O)[O-])cn2)o1)c1ccccc1 (centres unmarked) | -0.958%
OC1CCCN(Cc2ccc3ccc4cccc5ccc2c3c45)C1 (centres unmarked) | 1.31%
CCN(CCCNS(=O)(=O)c1cc(-c2cc(C)no2)ccc1C)Cc1ccccc1 | -29.5%
CN(CC(=O)Nc1ccc(F)cc1)C(=O)COC(=O)C1=COCCO1 | -4.57%
O=C(O)c1cc2ccccc2c(N=Nc2cccnc2)c1O | 12.6%
C1COCCO1.N#C/C(=C(/O)C(Cl)c1ccccc1)c1nc2ccccc2s1 (centres unmarked) | 3.94%
COc1ccc(/C=N/Nc2snc(SC)c2C#N)cc1OC | 7.72%
Cc1ccc(-n2c(SCC(=O)Nc3ccc(N4CCOCC4)cc3)nc3ccccc3c2=O)cc1 | 11.2%
CC1(C)Cc2nc3oc4c(N5CCOCC5)ncnc4c3cc2CO1 | 4.79%
